This passage reports binding signal results from article PMC7819943, “Rice protein-binding microarrays: a tool to detect cis-acting elements near promoter regions in rice”.

The other results are listed elsewhere or left out.

The target in the assay is T1, OsWOX13 (Oryza sativa, UniProt Q5QMM3 1-267).
T1 sequence: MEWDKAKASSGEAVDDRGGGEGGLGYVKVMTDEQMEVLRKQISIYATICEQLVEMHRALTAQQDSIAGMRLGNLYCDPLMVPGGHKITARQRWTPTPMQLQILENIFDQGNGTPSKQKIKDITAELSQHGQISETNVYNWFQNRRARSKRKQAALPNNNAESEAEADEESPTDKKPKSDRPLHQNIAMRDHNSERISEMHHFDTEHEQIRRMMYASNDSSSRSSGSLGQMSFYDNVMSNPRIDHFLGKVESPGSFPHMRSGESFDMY
Nature of the assay: protein-binding microarray (RPBM); PBS, 2% BSA, 51.3 ng/ul salmon testes DNA, 50 uM zinc acetate, 200 nM TF, 25 C, 1 h; high values mean tight binding. The settings on record: protein: recombinant; tags: N-terminal polyhistidine and DsRed monomer fusion (pET32a); label: CyDye5-dUTP incorporated in the synthesized complementary strand; 3' TTTTT single-stranded linker to array surface; dsDNA, one strand shown. In short, it runs like this:
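Using Ni–NTA, transcription factors fused N-terminally to polyhistidine and DsRed were purified after expression in E. coli BL21-CodonPlus. These were incubated at 200 nM with a blocked, double-stranded custom Agilent array for 1 h at 25 °C in a buffer containing 50 µM zinc acetate, and the array was washed. The binding signal is per-feature fluorescence intensity (arbitrary units) on an Axon 4000B scanner.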
Turning to “ATTATTTAAATTATTTGAATAAGACGAATGATCAAACACGCGGAGTCACCTAGTGCAG”, the binding signal is 16600 fluorescence intensity (a.u.).

In the case of “CTCAGATACCTGATTTAAAACAGAGTAAACCAAGTGGATGCGGAGTCACCTAGTGCAG”, the binding signal is 3610 fluorescence intensity (a.u.).

As to “AGAAGGTAAATTGATTCGGTTTTCATAGTTGAAGGAACCTCGGAGTCACCTAGTGCAG”, the binding signal is 16500 fluorescence intensity (a.u.).

Consider “TTTAAAATTGAAGTTATCACAAAACTATATCTTTTAGAGTCGGAGTCACCTAGTGCAG”, for which the binding signal is 10800 fluorescence intensity (a.u.).

On to “CTGGATCAGATTAGACGAGCAGATTAGATTACGTGGAGTCCGGAGTCACCTAGTGCAG”, for which the binding signal was 13300 fluorescence intensity (a.u.).

In the case of “CGCCGAGGGGAGGGGAGGGGAGGTTGCCATTGTTGTCCATCGGAGTCACCTAGTGCAG”, the binding signal is 4420 fluorescence intensity (a.u.).

Turning to “ATGAACAATGACAGATTATGATTTATGCAACGAAAACCTGCGGAGTCACCTAGTGCAG”, the binding signal is 13800 fluorescence intensity (a.u.).

In the case of “ATGCTGTGTTTATTGGATTGATGTGATATAATGTTCATTTCGGAGTCACCTAGTGCAG”, the binding signal is 6110 fluorescence intensity (a.u.).

For “ATGAGACATGATCATCAATTAATACATGTGCTGATCATCTCGGAGTCACCTAGTGCAG”, the binding signal is 27900 fluorescence intensity (a.u.).

For “CTATTTAAATGACATATAACCAATGAGAAAACATCCCCTCCGGAGTCACCTAGTGCAG”, the binding signal was 3870 fluorescence intensity (a.u.).

Turning to “TTCATTTATAGCCAATCTAATAGCCAATTCATACCATAGTCGGAGTCACCTAGTGCAG”, the binding signal was 8130 fluorescence intensity (a.u.).

For the sequence “AGAAGATTAAATTACCAATCATTTCAGAATCATGACGCATCGGAGTCACCTAGTGCAG”, the binding signal is 45700 fluorescence intensity (a.u.).

For “TAAATTAACTAGTTCATGAGGACTACAGCAAGTAGGTAGCCGGAGTCACCTAGTGCAG”, the binding signal was 5400 fluorescence intensity (a.u.).

For the sequence “ATTTAAATTAAATCTTAGGAATATAAATTATGAATAACTCCGGAGTCACCTAGTGCAG”, the binding signal is 14900 fluorescence intensity (a.u.).

As to “CCACGTGTAATTACCGATCTGCCCCTCCCAGCCCACGTCACGGAGTCACCTAGTGCAG”, the binding signal was 11000 fluorescence intensity (a.u.).

For “ATAAACAAATCTGAAGGAATAATTGCATACAATGTCTAGTCGGAGTCACCTAGTGCAG”, the binding signal was 4370 fluorescence intensity (a.u.).

As to “TCAAAATTGGAAGTTTGATTGAAATTGGAACGATGTGACGCGGAGTCACCTAGTGCAG”, the binding signal was 61400 fluorescence intensity (a.u.).

For “AGTTTTAATTACATTTAGAAGTTAGTGAAACTCTTACTAGCGGAGTCACCTAGTGCAG”, the binding signal is 14000 fluorescence intensity (a.u.).

On to “AGTATGTACCTGATTAACAGAAGAACTAACATATTCACTTCGGAGTCACCTAGTGCAG”, for which the binding signal was 3850 fluorescence intensity (a.u.).

“ATCATCATATAATGGGTAATTGACACACTGAGAGGAAACGCGGAGTCACCTAGTGCAG”: the binding signal was 28500 fluorescence intensity (a.u.).

For “TACTTACCATTGATTTGCAACAAAACGTGTTAGAGCTGGACGGAGTCACCTAGTGCAG”, the binding signal was 8040 fluorescence intensity (a.u.).

As to “TATGAATGAGCTATTAGATTAGCTATAAATGTTTTGGAGCCGGAGTCACCTAGTGCAG”, the binding signal is 7890 fluorescence intensity (a.u.).

Turning to “ACTGATTGCCGATCAGCCAGGCCCGGTGTTTACATCCAGGCGGAGTCACCTAGTGCAG”, the binding signal is 11300 fluorescence intensity (a.u.).
